Measurements reported in article PMC4336329 (PLoS ONE, 2015).
Screen size: about 310,000 compounds; about 2,200 (0.71%) showed an effect of 50% or more. Effects have a minus sign here. The list shows a part of the results.

The compounds below were run against human ether-à-go-go-related gene (hERG) potassium channel (human, UniProt Q12809) (assay: primary screen, population patch clamp on CHO cells stably expressing hERG).
Chain of human ether-à-go-go-related gene (hERG) potassium channel (Q12809 whole entry, looked up): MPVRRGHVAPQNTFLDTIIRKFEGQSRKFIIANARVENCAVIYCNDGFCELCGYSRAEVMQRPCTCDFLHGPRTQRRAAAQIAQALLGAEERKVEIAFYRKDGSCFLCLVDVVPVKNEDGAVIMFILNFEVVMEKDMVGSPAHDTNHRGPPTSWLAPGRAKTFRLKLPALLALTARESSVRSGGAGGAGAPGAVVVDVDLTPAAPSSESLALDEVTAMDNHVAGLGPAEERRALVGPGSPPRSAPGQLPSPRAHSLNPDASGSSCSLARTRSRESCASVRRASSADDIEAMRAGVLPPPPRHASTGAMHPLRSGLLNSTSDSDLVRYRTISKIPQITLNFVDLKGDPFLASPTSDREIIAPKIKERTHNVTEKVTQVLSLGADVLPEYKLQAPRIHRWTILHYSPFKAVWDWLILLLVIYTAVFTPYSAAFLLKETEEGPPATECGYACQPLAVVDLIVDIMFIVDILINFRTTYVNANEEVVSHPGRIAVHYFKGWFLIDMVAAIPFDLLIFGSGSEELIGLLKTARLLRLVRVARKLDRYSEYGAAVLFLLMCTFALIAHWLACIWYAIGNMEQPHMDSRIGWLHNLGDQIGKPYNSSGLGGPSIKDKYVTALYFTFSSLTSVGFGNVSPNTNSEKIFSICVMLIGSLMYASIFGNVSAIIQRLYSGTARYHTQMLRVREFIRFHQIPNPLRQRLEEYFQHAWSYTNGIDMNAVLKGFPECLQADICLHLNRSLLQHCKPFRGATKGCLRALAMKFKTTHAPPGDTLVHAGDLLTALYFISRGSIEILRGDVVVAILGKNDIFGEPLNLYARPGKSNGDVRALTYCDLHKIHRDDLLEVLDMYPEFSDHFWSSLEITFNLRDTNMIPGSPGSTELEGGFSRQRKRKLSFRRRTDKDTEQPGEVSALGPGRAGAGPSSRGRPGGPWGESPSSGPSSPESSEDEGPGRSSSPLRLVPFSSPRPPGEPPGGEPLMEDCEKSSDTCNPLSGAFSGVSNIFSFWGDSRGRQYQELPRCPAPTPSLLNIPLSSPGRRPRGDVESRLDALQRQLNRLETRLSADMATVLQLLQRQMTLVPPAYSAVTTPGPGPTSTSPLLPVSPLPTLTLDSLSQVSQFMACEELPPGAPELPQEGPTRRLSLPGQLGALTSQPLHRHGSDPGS

| Compound | hERG current change (%, negative = inhibition) at 1uM [%] |
| --- | --- |
| CCOc1ccc(N2CC(C(=O)Nc3c(C)n(C)n(-c4ccccc4)c3=O)CC2=O)cc1 (stereo not shown) | 17.3 |
| CN(CC(=O)NC1CCCC1)S(=O)(=O)c1cnc[nH]1 | 12.9 |
| S=C(NCCc1ccccc1)NC1CCCCCC1 | -1.53 |
| COC(=O)c1ccccc1COn1c(=O)c[n+]([O-])c2ccccc21 | 3.05 |
| Cc1nnc(SCc2nc3sc4c(c3c(=O)[nH]2)CCCC4)n(N)c1=O | 15.9 |
| COc1ccc(-c2cc(C(=O)Nc3cccnc3Cl)no2)cc1OC | 16.7 |
| Nc1nc(NC2CCCCC2)nc(NCCO)c1[N+](=O)[O-] | 7.41 |
| CC(C)(CN1CCNCC1)NS(=O)(=O)c1ccc(Cl)cc1 | 1.19 |
| Cc1onc(-c2c(F)cccc2Cl)c1C(=O)NC(=S)Nc1c(C)n(C)n(-c2ccccc2)c1=O | 10.6 |
| O=C(CCC1CCCC1)N=C1SC2CS(=O)(=O)CC2N1Cc1ccccc1 (stereo not shown) | 14.9 |
| CCCCNC(=O)c1onc(CSc2nc3ccccc3[nH]2)c1C(=O)NCCCC | 6.57 |
| CC(NC(=O)COc1cccnc1[N+](=O)[O-])c1ccc(Cl)cc1 (stereo not shown) | 8.12 |
| Cc1ccc(NS(=O)(=O)c2c(C)[nH]c(C)c2C(=O)N2CCCCC2)c(Cl)c1 | 8.09 |
| O=C(NCCCO)/C(=C\C=C\c1ccccc1)NC(=O)c1ccccc1Cl | 10.4 |
| CCCCn1c(N)c(N(CC)C(=O)/C=C/c2ccco2)c(=O)[nH]c1=O | 1.82 |
| COc1cc2c(c(OC)c1O)C(=O)CO2 | 18.1 |
| COc1ccc(S(=O)(=O)N2CCCCCC2)cc1C(=O)N(C)CC(=O)Nc1ccccc1Br | 25.6 |
| CC(=O)c1ccc(NC(=O)CSc2nc(N)c3cc4c(nc3n2)CCCC4)cc1 | 11.9 |
| O=c1[nH]c2cc(S(=O)(=O)CCO)ccc2o1 | 12.8 |
| Cc1nc([N+](=O)[O-])c(Br)n1Cc1ccccc1 | 6.81 |

| Compound | hERG current change (%, negative = inhibition) at 1uM [%] |
| --- | --- |
| C/C(=N/NC(=O)c1cccc(Br)c1)C1CC2CCC1C2 (stereo not shown) | 7.3 |
| Cc1cnc(C(=O)OCC(=O)c2ccccc2)cn1 | 14.2 |
| Cc1c(NC(=O)/C(C#N)=C/c2c(N3CCCCC3)nc3ccccn3c2=O)c(=O)n(-c2ccccc2)n1C | 8.14 |
| CCOc1ccc(NC(=O)CSc2cn[nH]n2)cc1 | 1.69 |
| Cc1c(C=NCCOCc2ccccc2)cnn1C | 11.7 |
| Cc1ccc(N2CC(C(=O)N3CCOCC3)CC2=O)cc1C (stereo not shown) | 12.4 |
| COc1cc2c(-c3ccccc3O)nc3c(c(C)nn3-c3ccccc3)c2cc1OC | 2.24 |
| O=C1c2ccccc2C(=O)C1(CO)c1ccccc1 | 12 |
| COCCCNC(=S)N(Cc1ccccc1)Cc1ccc(F)cc1 | 4.9 |
| Cc1nonc1-c1ccc2c(c1)OCO2 | 15.9 |
| CN(CCOc1ccccc1)C(=O)c1cc([N+](=O)[O-])cc([N+](=O)[O-])c1 | -23.9 |
| O=C(NCCN1CCOCC1)c1ccc2c(c1)N(Cc1ccccc1)CCS2 | 1.85 |
| COC(=O)c1ccc(C)c(NC(=O)CN(c2cc(OC)ccc2OC)S(C)(=O)=O)c1 | -7.38 |
| CC(=O)N/N=C(\C)CCc1ccccc1 | 16.3 |
| Cc1ccccc1OCC(=O)Nc1ccc(S(=O)(=O)Nc2onc(C)c2C)cc1 | 18.8 |
| COCCCn1c(SCC(=O)Nc2ccc(C)cc2)nc2ccccc2c1=O | 7.61 |
| COc1ccc([C@@H]2[C@@H]3C(=O)N(C(C)(C)C)C(=O)[C@@H]3[C@]3(CC(C)C)C(=O)N(c4cccc(Br)c4)C(=O)N23)cc1 | 15.8 |
| O=C(CSc1cn(CC(=O)N2CCCCCC2)c2ccccc12)NCC1CCCO1 (stereo not shown) | 7.45 |
| CCNC(=O)CC1SC(=Nc2ccccc2C)N(C)C1=O (stereo not shown) | -2.18 |
| CSc1ccc(CCNC(=O)C2CCCN(S(=O)(=O)N3CCOCC3)C2)cc1 (stereo not shown) | 16.2 |

| Compound | hERG current change (%, negative = inhibition) at 1uM [%] |
| --- | --- |
| CC(Cc1c[nH]c2ccccc12)C(=O)O (stereo not shown) | 7.64 |
| Cc1cc(C(=O)NC2CCCN(Cc3ccc(Cl)cc3)C2)no1 (stereo not shown) | 7.23 |
| CCCc1cc(=O)oc2cc(C)cc(OC(C)C(=O)NCCCn3ccnc3)c12 (stereo not shown) | 4.4 |
| COc1ccc(C(=O)NCCOc2cccc(Oc3ccccc3)c2)cc1OC | 8.42 |
| CC12CCC(C(=O)N3CCCCC3)(CC1=O)C2(C)C (stereo not shown) | 12.2 |
| CCCCCC(=O)Nc1c2c(nc3ccccc13)CCC2 | 4.6 |
| COc1cc(CC(=O)OCC(=O)c2ccc3c(c2)OCCO3)cc(OC)c1OC | -3.16 |
| O=C(NC(=S)Nc1ccccn1)c1ccc(-c2ccccc2)cc1 | 8.82 |
| COc1ccc(-n2nc(C(=O)NCC(=O)N3CCN(C)CC3)c3ccccc3c2=O)cc1OC | 12.4 |
| O=S(=O)(c1ccc(OCC(O)CN2CCN(c3ccccc3)CC2)cc1)N1CCOCC1 (stereo not shown) | 7.19 |
| CC(=O)N1CC(C)Sc2ccc(S(=O)(=O)NCCc3cccc(C)c3)cc21 (stereo not shown) | 8.76 |
| CC(=O)NC(CC(=O)OCC(=O)N1c2ccccc2NC(=O)C1(C)C)c1ccccc1 (stereo not shown) | 3.54 |
| O=c1nccc(N/N=C/c2cccc(O)c2)[nH]1 | 18.3 |
| CCOC(=O)c1c(NC(=O)c2nn(C)cc2[N+](=O)[O-])sc(C)c1C | 13.3 |
| Cc1cc(C(=O)Nc2ccon2)ccc1[N+](=O)[O-] | 9.65 |
| Cc1cc(C(=O)COC(=O)c2nc3nccc(C)n3n2)c(C)n1CC1CCCO1 (stereo not shown) | 17.1 |
| CCCc1c(C(=O)OCC)[nH]c2c1C(=O)CCC2 | 8.63 |
| CCOC(=O)c1cc2oc(C(c3nnnn3C3CCCCC3)N3CCOCC3)cc2[nH]1 (stereo not shown) | 0.694 |
